From US20260232769A1 (WUXI BIOLOGICS IRELAND, published 2026)
Read-outs that look alike come from different tables or passages of the source.

Columns and labels:
Test in all cases: cell-based or functional assay
[1] = molecular target: T1, IL-2Rβ/γc complex (intermediate affinity receptor) on primary human CD8+ T cells (human, UniProt P14784 27-551; P31785 23-369)
T1 sequence (looked up) 1: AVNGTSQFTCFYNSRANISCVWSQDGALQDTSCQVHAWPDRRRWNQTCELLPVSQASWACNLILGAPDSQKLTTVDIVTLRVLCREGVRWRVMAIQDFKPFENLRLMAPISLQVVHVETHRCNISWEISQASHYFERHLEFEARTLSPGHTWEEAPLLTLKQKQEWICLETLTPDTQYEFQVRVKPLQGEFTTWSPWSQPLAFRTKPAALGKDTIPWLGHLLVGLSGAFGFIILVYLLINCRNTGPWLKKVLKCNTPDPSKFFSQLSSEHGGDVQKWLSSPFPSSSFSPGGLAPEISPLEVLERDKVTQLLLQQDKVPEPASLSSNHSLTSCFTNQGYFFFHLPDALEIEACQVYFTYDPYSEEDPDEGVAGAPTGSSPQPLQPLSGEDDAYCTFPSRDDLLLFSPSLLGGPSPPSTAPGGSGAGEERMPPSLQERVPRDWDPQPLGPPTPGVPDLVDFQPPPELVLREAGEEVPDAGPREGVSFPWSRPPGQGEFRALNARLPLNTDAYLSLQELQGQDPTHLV
T1 sequence (looked up) 2: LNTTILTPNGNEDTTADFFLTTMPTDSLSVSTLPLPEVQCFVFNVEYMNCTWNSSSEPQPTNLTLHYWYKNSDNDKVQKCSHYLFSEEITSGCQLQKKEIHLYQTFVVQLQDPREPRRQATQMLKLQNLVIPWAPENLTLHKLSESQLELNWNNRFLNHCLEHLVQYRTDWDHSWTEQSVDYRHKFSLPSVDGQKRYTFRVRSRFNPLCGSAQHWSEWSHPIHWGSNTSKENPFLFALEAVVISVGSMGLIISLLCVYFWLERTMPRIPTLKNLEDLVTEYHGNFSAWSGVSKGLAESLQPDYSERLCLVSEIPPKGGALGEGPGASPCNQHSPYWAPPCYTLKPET

[2] = molecular target: T2, IL-2Rα/β/γc complex (high affinity receptor) on human activated CD8+ T cells (human, UniProt P01589 22-272; P14784 27-551; P31785 23-369)
T2 sequence (looked up) 1: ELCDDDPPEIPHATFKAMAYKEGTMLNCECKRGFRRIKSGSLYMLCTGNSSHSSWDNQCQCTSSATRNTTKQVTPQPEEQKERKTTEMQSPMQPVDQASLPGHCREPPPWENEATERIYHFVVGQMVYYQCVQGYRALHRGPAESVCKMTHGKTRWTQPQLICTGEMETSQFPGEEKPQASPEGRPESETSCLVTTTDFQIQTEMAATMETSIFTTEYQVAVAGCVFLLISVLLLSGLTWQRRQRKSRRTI
T2 sequence (looked up) 2: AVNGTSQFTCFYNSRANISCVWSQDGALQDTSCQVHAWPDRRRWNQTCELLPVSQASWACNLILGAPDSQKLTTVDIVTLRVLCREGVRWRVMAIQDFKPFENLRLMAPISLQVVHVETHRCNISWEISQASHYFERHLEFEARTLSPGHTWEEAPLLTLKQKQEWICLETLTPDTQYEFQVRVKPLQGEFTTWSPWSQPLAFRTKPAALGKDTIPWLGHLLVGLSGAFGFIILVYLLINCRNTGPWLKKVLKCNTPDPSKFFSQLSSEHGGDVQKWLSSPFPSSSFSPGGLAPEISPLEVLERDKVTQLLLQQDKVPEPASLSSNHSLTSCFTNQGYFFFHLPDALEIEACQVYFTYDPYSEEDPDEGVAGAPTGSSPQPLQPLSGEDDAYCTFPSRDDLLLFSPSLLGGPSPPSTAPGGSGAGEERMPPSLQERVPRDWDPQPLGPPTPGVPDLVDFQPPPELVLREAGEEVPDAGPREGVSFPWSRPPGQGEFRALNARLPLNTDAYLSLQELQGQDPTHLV
T2 sequence (looked up) 3: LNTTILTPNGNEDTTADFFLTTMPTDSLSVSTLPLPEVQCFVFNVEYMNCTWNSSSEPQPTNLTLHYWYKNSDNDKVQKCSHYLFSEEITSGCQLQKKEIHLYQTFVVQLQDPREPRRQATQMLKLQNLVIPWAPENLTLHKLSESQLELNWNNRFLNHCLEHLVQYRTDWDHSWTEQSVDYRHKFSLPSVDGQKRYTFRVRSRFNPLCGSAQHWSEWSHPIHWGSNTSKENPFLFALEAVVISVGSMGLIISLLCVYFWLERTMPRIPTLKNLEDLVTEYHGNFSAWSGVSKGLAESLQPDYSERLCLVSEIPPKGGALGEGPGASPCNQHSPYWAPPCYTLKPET

[3] = molecular target: T2, IL-2Rα/β/γc complex (high affinity …); remark: listed apart in the source
[4] = molecular target: T1, IL-2Rβ/γc complex (intermediate …); remark: listed apart in the source
[5] = molecular target: T1, IL-2Rβ/γc complex (intermediate …); remark: listed apart in the source
[6] = molecular target: T2, IL-2Rα/β/γc complex (high affinity …); remark: listed apart in the source
[7] = molecular target: T3, IL-2Rα (CD25) on human activated CD8+ T cells (human, UniProt P01589 22-272)
T3 sequence (looked up): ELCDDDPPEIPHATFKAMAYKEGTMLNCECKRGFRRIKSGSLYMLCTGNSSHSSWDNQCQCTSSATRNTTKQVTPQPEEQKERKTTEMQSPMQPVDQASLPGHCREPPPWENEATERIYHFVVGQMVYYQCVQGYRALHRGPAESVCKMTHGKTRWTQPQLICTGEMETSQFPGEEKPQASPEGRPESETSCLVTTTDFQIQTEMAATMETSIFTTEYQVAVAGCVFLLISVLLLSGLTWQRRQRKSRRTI

B1: W3XX115-T2U0.E44-1.uIgG4V322 (Fc fusion)
chain: [letters of about 150 residues left out]ESKYGPPCPPCPAPEAAGGPSVFLFPPKPKDTLMISRTPEVTCVVVDVSQEDPEVQFNWYVDGVEVHNAKTKPREEQFNSTYRVVSVLTVLHQDWLNGKEYKCKVSNKGLPSSIEKTISKAKGQPREPQVYTLPPCQEEMTKNQVSLWCLVKGFYPSDIAVEWESNGQPENNYKTTPPVLDSDGSFFLYSRLTVDKSRWQEGNVFSCSVMHEALHNHYTQKSLSLSLG
heavy: EIQLQQSGPELVKPGASVKVSCKASGYSFTDYNMYWVKQSHGESLEWIGYIDPYNGGTRYNQKFKGKATLTVDKSSSTAFMHLNSLTSEDSAVYYCARNGHWDGAWFAYWGQGTLVTVSAASTKGPSVFPLAPCSRSTSESTAALGCLVKDYFPEPVTVSWNSGALTSGVHTFPAVLQSSGLYSLSSVVTVPSSSLGTKTYTCNVDHKPSNTKVDKRVESKYGPPCPPCPAPEAAGGPSVFLFPPKPKDTLMISRTPEVTCVVVDVSQEDPEVQFNWYVDGVEVHNAKTKPREEQFNSTYRVVSVLTVLHQDWLNGKEYKCKVSNKGLPSSIEKTISKAKGQPREPQVCTLPPSQEEMTKNQVSLSCAVKGFYPSDIAVEWESNGQPENNYKTTPPVLDSDGSFFLVSRLTVDKSRWQEGNVFSCSVMHEALHNHYTQKSLSLSLG
light: DIQMNQSPSSLSASLGDTITITCHASQNINVWLSWYQQKPGNIPKLLIYKASNLHTGVPSRFSGSRSGTGFTLTISSLQPEDIATYYCHQGQSYPFTFGSGTKLEIKRTVAAPSVFIFPPSDEQLKSGTASVVCLLNNFYPREAKVQWKVDNALQSGNSQESVTEQDSKDSTYSLSSTLTLSKADYEKHKVYACEVTHQGLSSPVTKSFNRGEC
B1 was tested. Which “Potency reduction, pSTAT5, human primary CD8+ T” value [1] did it give?
The value was 1 fold.

And the “pSTAT5 EC50, human primary CD8+ T” value [1]?
The value was 14.2 nM.

And the “Potency reduction, pSTAT5, human activated CD8+ T” value [2]?
The value was 1 fold.

What about the “pSTAT5 EC50, human activated CD8+ T” value [2] of the same binder?
Its value is 27 pM.

What about the “Potency reduction, pSTAT5, human activated CD8+ T” value [3] of the same binder?
The value was 1 fold.

What about the “Potency reduction, pSTAT5, human primary CD8+ T” value [4] of the same binder?
Its value is 1 fold.

And the “pSTAT5 EC50, human primary CD8+ T” value [4]?
Its value is 7.65 nM.

What about the “Potency reduction, pSTAT5, human primary CD8+ T” value [5] of the same binder?
Its value is 1 fold.

And the “pSTAT5 EC50, human primary CD8+ T” value [5]?
Its value is 113 nM.

What about the “Potency reduction, pSTAT5, human activated CD8+ T” value [6] of the same binder?
The value was 1 fold.

What about the “pSTAT5 EC50, human activated CD8+ T” value [6] of the same binder?
Its value is 17 pM.

B2: W3XX115-T2.Z20-4.uIgG4V322 (Fc fusion)
chain: APTSSSTKKTQLQLEHLLLDLQMILNGINNYKNPKLTRMLTFKFYMPKKATELKHLQCLEEELKPLEEVLNLAQSKNFHLRPRDLISNINVIVLELKGSETTFMCEYADRTATIVEFLNRWYTFCQSIL[letters of human IgG4 Fc with S228P F234A L235A (EU numbers) left out]
Which “potency ratios of activated CD8+T/primary CD8+T (pSTAT5)” value [7] does the source give for B2 here?
Its value is 10000.

What about the “Potency reduction, pSTAT5, human primary CD8+ T” value [5] of the same binder?
Its value is 4.5 fold.

What about the “pSTAT5 EC50, human primary CD8+ T” value [5] of the same binder?
Its value is 511 nM.

What about the “Potency reduction, pSTAT5, human activated CD8+ T” value [6] of the same binder?
The value was 0.9 fold.

And the “pSTAT5 EC50, human activated CD8+ T” value [6]?
The value was 15 pM.
